B1: LINE1-mini (parent)
chain: GGCAGAGCUCAACACAGCGUGGCAAAGUGGCUGUGGCUAGACUGCC

Read counts are not given, so values of variants with three or more changes are uncertain.

The variants in this data set derive from B1. Put plainly: self-cleavage, relative activity (ratio to wild type); higher = more cleavage; in vitro, sequencing; the parent is a self-cleaving ribozyme.
As to G1A C8G G30A C31U A41U, the self-cleavage was found to be 0.04. As for G1A C10A A12G, the figure is 0.03; as for G1A C15U C18G G30C, 1.46. As to G1A C13A C15G, the self-cleavage worked out at 0.07.

Consider G1A G7U U20C C46U, for which the self-cleavage was found to be 0.05. With G1A G2C G7A U38A, the self-cleavage was 0.18. As for G1A C10U C23A, the figure is 0.51; as for G1A G2C C23A G30C G36U G40C, 0.05; as for G1A C18A G19U A25G, 0.01. As for G1A G7A U20G G30C, the figure is 1.09; as for G1A C8G C10G C18G C31G U38G G44U, 0; as for G1A C15A C37G, 0.08. As for G1A G19C A26G U34C, the figure is 0.11; as for G1A G7C A41U, 0.63; as for G1A G2A A14C C45G, 0.51. As to G1A C3G G5C G22U C23A U32G U38C, the self-cleavage came to 0.12. As for G1A G2C A14U G17U C18U G30A U32C, the figure is 0.02; as for G1A C15A U34C A39C, 0.03; as for G1A G7C A14G G17U G27U U43G, 0.01. As for G1A G7A G22C A24U C46G, the figure is 0.24. For the variant G1A C3A A6U A11U, the self-cleavage was 0.12. As for G1A C18G G19A G44C, the figure is 0.05; as for G1A G7U C8U U9G A11U C15U A16C G17C G19A, 0.04; as for G1A C3G C13A A14C G21A G36C, 0.22. As for G1A G2A A25G G29A G33U A39G, the figure is 0.14. As for G1A C8G C23G U38C A41U, the figure is 0.81. With G1A G2A A16U C18G U20A G22A, the self-cleavage is 0.16. As for G1A G27U U32A, the figure is 0.03; as for G1A C8U G36A C37U A39C, 0.6.

Turning to G1A C3G G5A U9G G22A, the self-cleavage came to 0.39. As for G1A C8A A39G, the figure is 1.18; as for G1A C23U A26G, 0.28; as for G1A G7C A14U C37A C42A U43G, 0.4. As for G1A G7C U9A A41G C46A, the figure is 0.03; as for G1A C3U A4U U20G, 0.39. As for G1A G7U A14U U20A G22C G36C A39G G44A, the figure is 0.34; as for G1A C18U G19C G27A, 1.79. For the variant G1A C23U G27A, the self-cleavage came out at 0.27.

Regarding G1A G2C A4U G17C G30U U34G, the self-cleavage was 0.04.

On to G1A C8G G22U G40A, for which the self-cleavage is 0.21. As for G1A C15A A26U, the figure is 0.08; as for G1A G7U G17C, 0.09; as for G1A G2C A4G A11C, 0. As for G1A G5A G36U, the figure is 0.06; as for G1A C10A G29U C46U, 0.05. As for G1A C10A G17A A26C G35U, the figure is 0.15; as for G1A C10G G27C G40U C45U, 0.01; as for G1A G27C G33U A41C, 0.09. Take G1A C3G C23G G29U U43G C45U: the self-cleavage stood at 0.05.

For G1A C10A C15U G27C U32A G36U A41C, the self-cleavage amounted to 0.02. As for G1A C15A A25C, the figure is 0.03. As for G1A G5U U38C, the figure is 0.09. Regarding G1A G5A C13U U43G C45G, the self-cleavage was 0.43. As for G1A G7A U20G A41C, the figure is 0.38; as for G1A C8G U34G, 0.04; as for G1A G5U C8U C10A G21U G29U, 0.07. As for G1A G5C A16G G33C, the figure is 0.04; as for G1A G5A G27U G29U, 0.16. As for G1A G2A A41G, the figure is 1.05. As to G1A G2U G19C G40U, the self-cleavage turned out to be 0.02. As for G1A G5U G7C G29A, the figure is 0.3; as for G1A G7C C46G, 0.41; as for G1A G7C C15A U28G, 0.06.

On to G1A A26U U32A, for which the self-cleavage amounted to 0.01.

G1A G17A G19A G27A G35A G44U C46A: the self-cleavage came to 0.06. Consider G1A G19C G40C A41C C45A, for which the self-cleavage is 0.07. Turning to G1A G17A A25U, the self-cleavage is 0.12. As for G1A G22U G40C C45U, the figure is 0.05. For G1A C8A A11C G36U U43C, the self-cleavage amounted to 0.01. As for G1A C3A C23A G40C C46G, the figure is 1.6; as for G1A G29A G36A, 0.03; as for G1A C3G C45U, 0.46. As for G1A G22C A25G U32A, the figure is 0.12; as for G1A G5U C31U G36A G40U, 0.01.

Turning to G1A C10U A12U A16G G21A A26U U34G C42U, the self-cleavage came out at 0.01. On to G1A C8G A16G G22A G33U U38G U43A, for which the self-cleavage was 0.05. Consider G1A G7C G19C C42G, for which the self-cleavage was determined as 0.09. As to G1A C10G C23U G30U, the self-cleavage came out at 0.2. As for G1A C3U C8A C10A, the figure is 0.13; as for G1A G2U C3A, 2.2; as for G1A G29A G30C G36A, 0.27.

With G1A C15U U20C U34G, the self-cleavage was 0.1. As for G1A C13A C15U C23G C31U, the figure is 0.07; as for G1A A26U U28C, 0.1. As for G1A C8U A26U G29U U34G, the figure is 0.02.

On to G1A C15U G36U G40C C42U, for which the self-cleavage came out at 0.05. As for G1A C15A C18A, the figure is 0.07; as for G1A C8G G33C C37A C42U, 0.07. Turning to G1A G29C G40C, the self-cleavage came to 0.03.

On to G1A C3G A6U C31U, for which the self-cleavage is 0.66.

Regarding G1A G2C U32G, the self-cleavage was 0.06.

As to G1A G22C G33C, the self-cleavage was 0.03. As for G1A G7A C23A G29A G30C, the figure is 0.22. As for G1A G22U U34A, the figure is 1.61. As for G1A G22U U34C, the figure is 0.09; as for G1A C13U A14G, 0.14; as for G1A G2C A12U G19U, 0.03. For the variant G1A G2U U34C C42G, the self-cleavage came to 0.05. As for G1A G2U G22A C37U U38G, the figure is 0.05; as for G1A C3A U20G C46A, 1.03. As for G1A C13U G22C C42G, the figure is 0.06. As for G1A G19U G29U C37G A39C C45U, the figure is 0.02; as for G1A G21A A24C A26C, 0.12.

As to G1A G5C C37U, the self-cleavage was 0.07. Consider G1A C3G G35C C42A, for which the self-cleavage came to 0.06. Turning to G1A C8U C13G C23U A24U, the self-cleavage was 0.03. As for G1A C10A C18A A26U, the figure is 0.14; as for G1A C13A C18U G30A C31A, 0.14; as for G1A G19A U28G, 0.36. As for G1A G22A C31U C42A, the figure is 0.05. Take G1A G2C A4U C18U G27A: the self-cleavage stood at 0.23.

In the case of G1A C23U G29A C31G G44A, the self-cleavage was 0.14.

Turning to G1A G2U C8G G36U, the self-cleavage was found to be 0.08. As for G1A G22A A25U A26C, the figure is 0.88. As for G1A C10A G29U G30U, the figure is 0.04; as for G1A G17C G21A G27C, 1.48. As for G1A G27A G36C, the figure is 0.06; as for G1A C3U A11U, 0.13. Turning to G1A G2A C3G U9C U20C U38A A41U, the self-cleavage was determined as 0.5. As for G1A C3G C10A A24C, the figure is 0.14. As to G1A C8A A24C A25U U34C C42A, the self-cleavage stood at 0.63.

Regarding G1A C8U U28A G29C C31A, the self-cleavage was determined as 0.96. As for G1A C3A A4U, the figure is 2.1; as for G1A C10A C13U C18A A26G G33U, 0.02; as for G1A C18U G21U C31U U32A, 0.06. As for G1A C3U G5A C8G U20G, the figure is 2.19. As for G1A G5A C15A C23A, the figure is 0.14; as for G1A G5C C23A G27U G30U, 0.04. Take G1A C3U C10A C23G A24G: the self-cleavage is 0.11. Take G1A G17U U20A A26U U34A A39G G44C: the self-cleavage was found to be 0. As for G1A C10G A16G G21A C31U, the figure is 0.03; as for G1A G5U C10A U32C U34A, 0.04; as for G1A C15A G33A, 0.05. As for G1A G19A G44C C46U, the figure is 0.27.

On to G1A G22A G30A C31U, for which the self-cleavage is 0.2.

In the case of G1A C10G G17A A26C G27A, the self-cleavage stood at 0.37.

G1A C3U A12U A16G G29A G33A: the self-cleavage turned out to be 0.04. Take G1A C3A C23A A26U U28C G35C: the self-cleavage is 2.42. As for G1A C15U G27C G35U, the figure is 0.08; as for G1A G21A C45G, 0.19; as for G1A G5U C15A, 0.05. As for G1A C13A C37A A39U, the figure is 0.03; as for G1A G7C A12G G29U G30A, 0.09. As for G1A C8A C46A, the figure is 1.41; as for G1A C3U G22U A24G G27C G30A G33C, 0.02. As for G1A C13G A14U G17C A41G C45U C46A, the self-cleavage was found to be 0. G1A G7A A41G C46A: the self-cleavage was 0.88. As for G1A G27U C37U, the figure is 0.07; as for G1A C13U G33U, 0.12.

Turning to G1A G7A C8A C10G C46G, the self-cleavage was 0.09.

For G1A G2U A6C G19A U38C, the self-cleavage was 0.02. As for G1A G2C G5U A6G A14G G17U C18A G30U, the figure is 0.06; as for G1A C15A G29A, 0.19; as for G1A C8G A24U G44C, 0.12. Turning to G1A C15G C23G U43A, the self-cleavage was determined as 0. On to G1A G19U G21C G27U G29U G40A, for which the self-cleavage stood at 0.05.

As for G1A G29A C37G, the self-cleavage came to 0.02.

Regarding G1A C3G A16C, the self-cleavage worked out at 0.19.

On to G1A C13A G17A G21A G35A, for which the self-cleavage came to 0.08. As for G1A A26U G33U, the figure is 0.06. With G1A G2U C10G U20G G35A, the self-cleavage worked out at 0.02. As for G1A G19C U38C, the figure is 0.52; as for G1A C10A A26U G36A, 0.04.

As for G1A C15U A24G U28G, the self-cleavage was determined as 0.52.

As for G1A G17U U28C U34G C37U, the self-cleavage was 0.04. As for G1A C31A C37U A41U C46A, the figure is 0.04; as for G1A C10U A14G G44U, 0.05.

Source of the values: the RNAGym collection of RNA variant scans (doi:10.7554/elife.90254).
